Some of the results follow.
test system: PfSIP2 AP2 domain 1 (GST-tagged); experiment: gcPBM binding intensity (ln(normalized median fluorescence intensity)); higher = stronger DNA binding
Outline: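 In this array assay, P. falciparum DNA-binding domains with a GST tag, expressed in E. coli, were applied for 1 h to primer-extended double-stranded 36-bp intergenic genomic probes and negative controls on an Agilent 4 × 180k array. Bound protein was visualised with Alexa488 anti-GST antibody at 488 nm. Binding intensity is the highest Masliner-normalised natural-log median intensity across replicate spots of either probe orientation.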

| Sequence | gcPBM binding intensity (ln) |
| --- | --- |
| AAATTTGAAGAATATTGTACGCATAATAATTAAATA [XGTACX_site4300] | 7.2 |
| ATGCTTTTTAAATGATTGCACTAGATTGTAATATGT [GTGCAC_site9666] | 8.08 |
| TATATATATATTTTAACACACACATATATATATTTA [CACACA_site8892] | 8.67 |
| ATATATATATATTGCACACACAATTATTATTATTAT [CACACA_site2299] | 9.33 |
| GTGCATATCTGATATACACACAATAAAATAGTATGT [CACACA_site7203] | 9.24 |
| AATTATATATTTGAGAGTACATATGTAATGTTTATA [XGTACX_site6970] | 7.09 |
| CATATATTATTTATACGTACTAATAAAATAAATCAA [XGTACX_site1030] | 7.29 |
| TATGATACATAAATATGTACGTATAATATATATTTA [XGTACX_site7002] | 6.96 |
| CCCGTAAATTATGAGTGTACGTTATTTTTTAAAATG [XGTACX_site3946] | 7.07 |
| ACATATACATATATATGTACATAAATATATATATAT [XGTACX_site8630] | 9.03 |
| TTCTAACTTTTAAACACACAAATATAAATAAGTATA [CACACA_site7473] | 6.96 |
| GAACGTATCATGTGTACACACAAATTGTTTTTTTTT [CACACA_site2020] | 7.03 |
| AAGAATAATAATAAATGTACACAATATTATATATAT [XGTACX_site5525] | 7.65 |
| AAATGAACAAGTGGCACACACACATTATAACTAATT [CACACA_site9048] | 7.04 |
| TGCAAGCTTATATAGGTGCACATGTATACGTGTTCA | 11.3 |
| TATATACACAAACACACACACACATACACCCACATA [CACACA_site8504] | 7.21 |
| TATTAAAATTAAAAAAAAAAAAAAAAGCAATAAAAA [XGTACX_negctrl_site426] | 6.54 |
| TATGTAGTCACAAGGTGTACACTTTAACAAATTATG [XGTACX_site8792] | 7.23 |
| TGATTCTTTTGTATCACACACACTTAGTTTAATTTT [CACACA_site2404] | 6.85 |
| ACTTGACACGGACACACACACATATATAAAAAAAAA [CACACA_site4576] | 7.78 |
| TTTTTTTATTATCATGCACACATTTTTTTTTTTTAC [CACACA_site2253] | 7.42 |
| TCCTTTATTTTTAAATGTACAAATATTATCTCCTCA [XGTACX_site5856] | 7 |
| ATAATAAAAATAAGAGAATAAAAATGCAATTTAATG [CACACA_negctrl_site878] | 6.81 |
| AACTCACATAAATTCACACAAATGTATATTCATATA [CACACA_site4554] | 6.94 |
| ATTTATAATGTGTATACACACATATATAGATTTGCT [CACACA_site6440] | 6.87 |
